Assay results from the supplement of paper PMC3334620.
Over roughly 33,000 sequences, “E-score (-0.5 to 0.5)” has its median near -0.056; the highest 2% begin near 0.38. The list shows a part of the results.

Molecular target: Stb4 (UniProt P50104)
Assay: PBM E-score (8-mer binding enrichment) (E-score (-0.5 to 0.5)); higher = stronger / more preferred TF binding; most listed sequences are background and not binding sites
Details: protein concentration: 200 nM; construct: GST-DNA-binding domain
Procedure, shortened: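 Universal all-10-mer Agilent arrays, fresh or stripped once, were converted to double-stranded form by primer extension. GST-tagged yeast transcription factors from PURExpress in vitro transcription/translation, full-length or DNA-binding domain only, were applied at about 100-200 nM and detected with fluorescent anti-GST. After masliner normalisation, the Universal PBM Analysis Suite scored each ungapped eight-base word together with its reverse complement by E-score.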

Going from ACACCAAC to GCGGAACC, the “PBM E-score” value rises from -0.112 to 0.284.

Compared with ACGCTACA, ACCTAGAT is higher in “PBM E-score” value: -0.107 for the first, -0.0686 for the second.

First: CGTCCGTA
Second: CTTGTCCA
The “PBM E-score” value of the first is higher: 0.0345 for the first, -0.0611 for the second.

First: CAACAATC
Second: CTTATTTA
The “PBM E-score” value of the first is higher: -0.121 for the first, -0.164 for the second.

Compared with TAGGCCGA, GCACCGGA is higher in “PBM E-score” value: 0.184 for the first, 0.329 for the second.

Compared with CCAATACC, CTGTTTTA is higher in “PBM E-score” value: 0.0344 for the first, 0.0688 for the second.

First: CAACATGC
Second: CGAGTGGA
The “PBM E-score” value of the first is lower: -0.165 for the first, 0.122 for the second.

Compared with AAAAGGTC, CACGTACG is lower in “PBM E-score” value: -0.0607 for the first, -0.0829 for the second.

First: TGAGAGAA
Second: AGACGGTC
The “PBM E-score” value of the first is lower: -0.309 for the first, -0.103 for the second.

Going from ATAGCGAA to GTCACAGA, the “PBM E-score” value falls from -0.0663 to -0.205.

First: CCCTCTAA
Second: CAACTCGC
The “PBM E-score” value of the first is lower: -0.182 for the first, -0.117 for the second.

Going from CCGTAGAC to ACCTTCCT, the “PBM E-score” value falls from 0.166 to -0.342.

Compared with AACCCCTC, CAATAACG is lower in “PBM E-score” value: -0.0278 for the first, -0.115 for the second.

First: TCTGTGAA
Second: CCCGATAA
The “PBM E-score” value of the first is lower: -0.102 for the first, 0.248 for the second.

First: GTATTGCA
Second: TATATTCA
The “PBM E-score” value of the first is higher: -0.0744 for the first, -0.105 for the second.

Going from CCAAGTGG to CGCTCGGA, the “PBM E-score” value rises from -0.187 to 0.463.

First: TAGTACCA
Second: CAGTTATA
The “PBM E-score” value of the first is lower: -0.0805 for the first, -0.00551 for the second.

Going from CGGCGCGC to ATCCAAAC, the “PBM E-score” value falls from 0.182 to -0.125.

Going from AGATTCAC to AACCAGCC, the “PBM E-score” value rises from -0.0606 to 0.103.

Going from TATATGGA to ACGTGTTC, the “PBM E-score” value rises from -0.233 to -0.0476.

First: TACGCTAA
Second: CAAAAAAA
The “PBM E-score” value of the first is lower: -0.105 for the first, 0.165 for the second.

Going from CATCAGCG to AGTTCCAC, the “PBM E-score” value falls from -0.0429 to -0.0927.

Compared with AGCCGAGC, CATGCGTC is lower in “PBM E-score” value: 0.448 for the first, -0.0859 for the second.

First: ATATCTCG
Second: CGGTATGA
The “PBM E-score” value of the first is higher: 0.186 for the first, 0.182 for the second.

Compared with GAGCGTCA, GAGCGAAC is lower in “PBM E-score” value: 0.026 for the first, -0.11 for the second.

Compared with TCAATACA, GTGTGCTA is higher in “PBM E-score” value: -0.0858 for the first, -0.0288 for the second.

First: ATAACACC
Second: AATGAAAG
The “PBM E-score” value of the first is higher: 0.184 for the first, -0.0359 for the second.

First: AAGAGTCA
Second: AGCGAGTG
The “PBM E-score” value of the first is lower: -0.097 for the first, -0.0337 for the second.

First: AGTCGACG
Second: AGAGCACC
The “PBM E-score” value of the first is higher: 0.0306 for the first, -0.228 for the second.

First: ATTAACTC
Second: TGGCGCAA
The “PBM E-score” value of the first is higher: 0.0369 for the first, -0.128 for the second.

Compared with GCCGTGAA, GGTGTCTA is lower in “PBM E-score” value: 0.0921 for the first, -0.13 for the second.

Compared with AGGGTAGC, GGGTGAAA is higher in “PBM E-score” value: -0.199 for the first, 0.169 for the second.

Compared with AGATTAAG, CGCGCGCA is higher in “PBM E-score” value: -0.0284 for the first, 0.147 for the second.

First: ATCCTCGC
Second: GCACGTCC
The “PBM E-score” value of the first is higher: -0.0124 for the first, -0.0131 for the second.

Going from TGTTCTAA to AACGGGAC, the “PBM E-score” value rises from -0.0848 to 0.158.

First: CACCCCGA
Second: CCTAGAGG
The “PBM E-score” value of the first is higher: 0.284 for the first, -0.22 for the second.

First: GTTGACCA
Second: AAGTTACT
The “PBM E-score” value of the first is lower: -0.0923 for the first, -0.0331 for the second.

First: ACTATACC
Second: CGTACGGA
The “PBM E-score” value of the first is lower: 0.0944 for the first, 0.285 for the second.

Going from ACCCGGGC to ATAAGCAG, the “PBM E-score” value falls from 0.326 to -0.0922.

First: AAATGGTT
Second: AATATAAC
The “PBM E-score” value of the first is lower: -0.175 for the first, 0.109 for the second.

Compared with CGCCCGAC, ATGGGCCA is lower in “PBM E-score” value: 0.21 for the first, -0.0993 for the second.

Going from ACACGAGA to CAGTCCAA, the “PBM E-score” value rises from -0.19 to -0.158.

Going from GTAGGATA to ACGAGAAG, the “PBM E-score” value falls from -0.0485 to -0.264.

First: CTAGTACC
Second: TAAGCATA
The “PBM E-score” value of the first is higher: -0.0491 for the first, -0.128 for the second.

Going from ATGAAGTC to AATCCACG, the “PBM E-score” value falls from -0.117 to -0.166.

Going from CTACTCGA to TCACCGAA, the “PBM E-score” value rises from -0.121 to 0.249.

First: AATTAGCA
Second: ACGTGATA
The “PBM E-score” value of the first is higher: 0.118 for the first, -0.167 for the second.

Compared with AAAAAAGA, ACCGAAAG is higher in “PBM E-score” value: -0.131 for the first, 0.231 for the second.

Compared with AGACAGCA, CATACTCG is higher in “PBM E-score” value: -0.0333 for the first, 0.104 for the second.

First: TACTACAA
Second: AAGTGTTA
The “PBM E-score” value of the first is higher: -0.0719 for the first, -0.0763 for the second.

Going from ACATAAAC to AGCGGACA, the “PBM E-score” value rises from -0.0698 to 0.0418.

Going from AATAAACC to ATTAACGC, the “PBM E-score” value falls from 0.179 to -0.0923.

Compared with TCGCCAGA, CCCTTTGC is higher in “PBM E-score” value: -0.24 for the first, 0.00773 for the second.

Compared with ATTTCGGC, CAGCTGCC is lower in “PBM E-score” value: 0.371 for the first, 0.146 for the second.

First: AGTGTTTA
Second: AGCCAAGA
The “PBM E-score” value of the first is higher: -0.0553 for the first, -0.22 for the second.

First: TCCGATCA
Second: GTCAGTGA
The “PBM E-score” value of the first is higher: 0.358 for the first, -0.269 for the second.

First: CACTACGG
Second: ACGACGGC
The “PBM E-score” value of the first is higher: 0.0783 for the first, -0.0199 for the second.

Going from ACATATAT to ACTTTGCC, the “PBM E-score” value rises from -0.0249 to 0.12.

Going from AGTGACGG to ATTGGACG, the “PBM E-score” value falls from 0.137 to -0.149.

Compared with GTATATAA, AGAGAAAA is higher in “PBM E-score” value: -0.108 for the first, -0.034 for the second.

First: CAAGCATG
Second: AATCGGGC
The “PBM E-score” value of the first is lower: -0.243 for the first, 0.159 for the second.

Compared with CAATTCAA, ACCTTAAT is higher in “PBM E-score” value: -0.198 for the first, -0.0966 for the second.

First: CTAACGGC
Second: CGACGGGC
The “PBM E-score” value of the first is lower: 0.107 for the first, 0.131 for the second.

First: CATTCGCG
Second: ACAATCCA
The “PBM E-score” value of the first is higher: 0.0319 for the first, -0.205 for the second.

Compared with AACTTAGC, AGATAAAG is higher in “PBM E-score” value: -0.0883 for the first, -0.0016 for the second.

Compared with ATGACTCG, ACACGAGC is lower in “PBM E-score” value: 0.145 for the first, -0.152 for the second.

Compared with GGATTGCC, ATTTAAAT is lower in “PBM E-score” value: 0.0664 for the first, -0.101 for the second.

Compared with CTGGGACC, CCGCGATC is higher in “PBM E-score” value: -0.213 for the first, 0.142 for the second.

First: CTGCTCAA
Second: GGCAAGCA
The “PBM E-score” value of the first is lower: -0.238 for the first, 0.0849 for the second.

First: ACTGTGAC
Second: AACCATAG
The “PBM E-score” value of the first is higher: -0.0214 for the first, -0.0687 for the second.

First: CATTCCAC
Second: GGCTTAGA
The “PBM E-score” value of the first is higher: -0.113 for the first, -0.125 for the second.

First: AACTCCAG
Second: ACTTCACT
The “PBM E-score” value of the first is lower: -0.205 for the first, -0.136 for the second.

Compared with AGTTGGCA, AATAAGGA is higher in “PBM E-score” value: -0.178 for the first, -0.136 for the second.

Compared with ATTTAAAG, GTGATAGA is lower in “PBM E-score” value: 0.121 for the first, -0.147 for the second.

Compared with GCAATGAA, GCGGAAGC is higher in “PBM E-score” value: -0.0644 for the first, 0.336 for the second.

First: ACGTAATC
Second: CTTCCGTA
The “PBM E-score” value of the first is lower: -0.107 for the first, 0.379 for the second.

Going from ACTATCGG to CAATGTCA, the “PBM E-score” value falls from 0.236 to -0.0158.

Compared with TCACGGCA, CCGAGGCG is higher in “PBM E-score” value: 0.114 for the first, 0.398 for the second.

Compared with CCACATCA, ACTCTGTG is higher in “PBM E-score” value: -0.117 for the first, -0.0844 for the second.

Going from ACCCCTGA to ATGGATTC, the “PBM E-score” value rises from -0.0942 to -0.0389.

Going from AACCCCGG to AATTGAGT, the “PBM E-score” value falls from 0.267 to -0.0376.

First: CGGTGCCC
Second: AAAAAAGT
The “PBM E-score” value of the first is higher: 0.167 for the first, 0.0481 for the second.

Compared with CTGTAACA, AAGGTCAT is higher in “PBM E-score” value: -0.221 for the first, -0.0172 for the second.

First: CTTAGTTA
Second: ACAGTCGG
The “PBM E-score” value of the first is lower: 0.0341 for the first, 0.238 for the second.

Going from GGATGACA to ATCCAAGG, the “PBM E-score” value falls from 0.0349 to -0.0289.

Going from AGTCCTAA to TAACACGA, the “PBM E-score” value rises from -0.274 to -0.0541.
